The record followed here is ChEMBL document CHEMBL1201862, “PubChem BioAssay data set” (2004).

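A five-concentration, 48-hour dose response in 96-well plates underlies each endpoint, interpolated linearly between surrounding concentrations. GI50 is the concentration that inhibits growth by half.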 Calls of active or inactive are those of the source. Cut-off read from the data, not from the text of the source: active = GI50 up to about 1.1 µM and inactive = higher.

The test deals with NCI-H322M. Nature of the test: NCI anticancer screen, dose series, 48 h.
As to `CCC1c2[nH]c3ccccc3c2C[C@H]2C(=O)NC(CCCCNC(=O)OC(C)(C)C)C(=O)N12` (stereo partly specified), the GI50 is inactive: 46.9 µM.

Consider `CCCC(=O)Nc1ncnc2c1ncn2C1OC2COP(=O)(O)OC2C1OC(=O)CCC` (stereo unspecified), for which the GI50 is inactive: > 100 µM.

Take `C(=N/Nc1ccccn1)/c1cccnc1`: the GI50 was inactive: > 100 µM.

Regarding `O=C(O)CSCC(=O)O`, the GI50 is inactive: > 100 µM.

`CC(=O)Nc1nc(O)c2nc(C=O)cnc2n1`: the GI50 is inactive: > 100 µM.

Take `COc1cc2c[n+](C)c3c4ccccc4ccc3c2cc1OC.COc1cc2cnc3c4ccccc4ccc3c2cc1OC`: the GI50 was inactive: 10 µM.

Consider `COc1ccccc1[C@@H]1CCC2CC[C@@H](c3ccccc3OC)[N+]21Cc1ccccc1` (stereo partly specified), for which the GI50 was inactive: 2.36 µM.

For `Cc1c2c(n(CCc3ccccc3)c1C)NN=C(C#N)S2(=O)=O`, the GI50 was inactive: > 100 µM.

Consider `COC(C/C(=C/CO[Si](C(C)C)(C(C)C)C(C)C)C(=O)Nc1ccccc1I)OC`, for which the GI50 is inactive: 48.4 µM.

Turning to `COc1ccc(/N=C(/[N-]n2c(=O)c(C)nn(C)c2=S)N(c2ccc(OC)cc2)c2n[n+]3c(=O)c(C)nn(C)c3s2)cc1`, the GI50 is inactive: > 100 µM.

For the molecule `O=[N+]([O-])c1ccccc1S(=O)(=O)c1cc(Cl)cc2c1NCCC2`, the GI50 was inactive: > 100 µM.

Regarding `CCOC(=O)[C@H]1Nc2ccc(O)cc2C2c3ccccc3CC21` (stereo partly specified), the GI50 was inactive: > 100 µM.

Regarding `O=P(c1ccccc1)(c1ccccc1)C1CC=C2CCCCCC2C1` (stereo unspecified), the GI50 is inactive: 25.3 µM.

Turning to `CCOC(=O)C1(C#N)C(c2ccccc2)CC(O)(c2ccc(Cl)cc2)C(C(=O)c2ccc(Cl)cc2)C1c1ccccc1` (stereo unspecified), the GI50 was inactive: > 100 µM.

As for `COc1cc(C=O)cc(/C=N/N=C/c2ccccc2O)c1O`, the GI50 is inactive: 30.2 µM.

On to `Cc1ccc(S(=NS(=O)(=O)c2ccc(C)cc2)c2ccc(C)cc2)cc1`, for which the GI50 was inactive: > 100 µM.

As to `Cc1cccc2c(N)c3cccc(C(=O)NCC[N+](C)(C)Cc4ccc(S(C)(=O)=O)cc4)c3nc12`, the GI50 is inactive: 53.2 µM.

Turning to `COC1/C=C/C(C)C(C(C)C(OC)C(C)CCC(=O)C(C)C(C/C=C/N(C)C=O)OC)OC(=O)C=CC2OC2(C)CC(OC)C(OC)C2=CC(=O)O[C@@H](C(C)C(OC)CC(OC)/C=C/C(C)C(O)C1)[C@H]2O` (stereo partly specified), the GI50 was active: 0.0142 µM.

For `Cc1cc(NCCCCCCNc2cc(C)nc3ccc(Cl)cc23)c2cc(Cl)ccc2n1`, the GI50 is inactive: 30.1 µM.

Take `CN(C)C(=O)C(NCCO)c1ccccc1` (stereo unspecified): the GI50 is inactive: > 100 µM.

Turning to `Cc1cc(C(O)CCCc2ccccc2)cc(C)c1O` (stereo unspecified), the GI50 is inactive: 93.8 µM.

Take `CCOC(=O)/C(=C/Nc1c(C)n(C)n(-c2ccccc2)c1=O)C(C)=O`: the GI50 was inactive: > 100 µM.

Take `COc1ccc2c(c1)CCN1CCc3cc(OC)c(OC)cc3CC21` (stereo unspecified): the GI50 is inactive: > 100 µM.

For the molecule `COC(OC)c1cccc2c1C(=O)CCC1(CC2)OCCCCO1`, the GI50 was inactive: > 100 µM.

For the molecule `O=C(O)CCNCCCCNCCC(=O)O`, the GI50 is inactive: > 100 µM.

On to `C#CCOCC12C=CC(O1)C1C(=O)OCC12` (stereo unspecified), for which the GI50 is inactive: > 100 µM.

Consider `Cc1cccc2c(N)c3cccc(C(=O)NCC[N+](C)(C)Cc4ccc([N+](=O)[O-])n4C)c3nc12`, for which the GI50 is inactive: 18.5 µM.

On to `COC(=O)CCCC(=O)C1=NN(c2ccc(Cl)cc2)Cc2ccccc2N1`, for which the GI50 is inactive: 28.2 µM.

In the case of `CC/C=C(\C(=C/CC)[N+](=O)[O-])[N+](=O)[O-]`, the GI50 is inactive: > 100 µM.

Regarding `COc1ccc(-c2c(C#N)c(N)nc(Sc3ccccc3N)c2C#N)cc1`, the GI50 was inactive: 29.5 µM.

In the case of `Nc1cnc2c(c1)c(=O)nc1n2CCS1`, the GI50 was inactive: > 100 µM.

As for `COc1ccc2c(c1)-c1nc(=S)n(CCCN(C)C)c3ccc([N+](=O)[O-])c(c13)N2`, the GI50 is active: 0.557 µM.

For the molecule `CCOC(=O)c1cc(Br)c(-c2onc(C)c2Br)[nH]1`, the GI50 was inactive: 49.7 µM.

As for `COc1cc(S(=O)(=O)Nc2ccc(-c3csc(/N=C\c4cccs4)n3)cc2)ccc1Cl`, the GI50 is inactive: 63 µM.

In the case of `Cn1cccc1/C=C/c1cc(Br)c(/C=C/c2cccn2C)cc1Br`, the GI50 was inactive: 18.5 µM.

In the case of `CCOC(=O)c1cc2nc3ccccc3c(=O)n2c2ccccc12`, the GI50 is inactive: > 10 µM.

As for `Oc1ccc(O)c(-n2cccn2)c1`, the GI50 is inactive: > 100 µM.

On to `Cc1nc(C(N)=S)sc1C(=O)/C=C/c1c(O)ccc2ccccc12`, for which the GI50 is inactive: > 68.9 µM.

With `O=C(/C=C(\Nc1ccccc1O)c1ccc(Br)cc1)C(Cl)(Cl)Cl`, the GI50 is inactive: 2.04 µM.

On to `O=C1[C@@H]2C3c4ccccc4C([C@@H]2C(=O)N1c1ccccc1)S3(=O)=O`, for which the GI50 was inactive: > 100 µM.

`COC(=O)[C@@H]1Cc2cc(O)c(O)cc2C2(CCN(C)CC2)O1`: the GI50 is inactive: > 10 µM.

As for `NC1(CCNC(=O)c2ccccc2)CCN(C(=O)c2ccccc2)CC1`, the GI50 was inactive: > 100 µM.

For the molecule `Cn1c(=O)n2n(c1=O)Cc1cccc3cccc(c13)C2`, the GI50 was inactive: > 100 µM.

On to `CCOc1nnnc2[nH]cnc12`, for which the GI50 is inactive: > 100 µM.

For the molecule `Cc1nn2c(=O)c([N+](=O)[O-])c(/C=C/c3ccccc3)nc2s1`, the GI50 was inactive: 4.12 µM.

As for `N/C(=N\O)N/N=C\c1c2ccccc2c(Cl)c2ccccc12`, the GI50 was inactive: 3.06 µM.

As to `NC(CCC(=O)O)(CCC(=O)O)CCC(=O)O`, the GI50 is inactive: > 100 µM.

With `Nc1nc2c(c(=O)[nH]1)C(c1ccccc1)CC(=O)N2` (stereo unspecified), the GI50 was inactive: > 100 µM.

Consider `C/C(=N\NC(=N)N)C(CN1CCOCC1)C(c1ccccc1)c1c(O)c2ccccc2oc1=O` (stereo unspecified), for which the GI50 is inactive: > 100 µM.

`C=C1CC[C@@]2(OC1)OC1C[C@H]3[C@@H]4CC=C5C[C@@H](O)CC(OC6OCC(OC(=O)[C@@H](O)[C@@H](C)CC)C(OC(C)=O)C6OC6OC(C)C(O)C(O)C6O)[C@]5(C)[C@H]4CC[C@]3(C)C1[C@@H]2C` (stereo partly specified): the GI50 was inactive: 2.38 µM.

Consider `COc1cc2oc(=O)cc(C)c2cc1OC`, for which the GI50 is inactive: > 100 µM.

For `CC1=C(c2cc(C(=O)Nc3cccc(C(F)(F)F)c3)ncn2)Sc2ccccc2N1`, the GI50 is inactive: > 100 µM.

In the case of `COc1cc(=O)oc(/C=C/C=C/C=C/C(C)=C\C2(C)OC(C)C(C)(O)C2O)c1C` (stereo unspecified), the GI50 was inactive: > 100 µM.

Turning to `O=c1c2c([N+](=O)[O-])cccc2nc2[nH]c3ccccc3n12`, the GI50 is inactive: 18.9 µM.

Regarding `COC(=O)c1ccc2c(c1)CC1(C2)Cc2cc3c(cc2C1)CCC3`, the GI50 was inactive: > 100 µM.

For `CC(=O)NNC(=O)C1CCCCN1` (stereo unspecified), the GI50 is inactive: > 100 µM.

Consider `CSc1nc(NC2OC(CO)C(O)C(O)C2O)c(N)c(=O)n1C` (stereo unspecified), for which the GI50 is inactive: > 100 µM.

With `CCC(C)Cn1c(C)nc2c1C(=O)c1ccccc1C2=O` (stereo unspecified), the GI50 is inactive: 50.2 µM.

For `COc1ccccc1NC(=O)CC(=O)N1N=C(c2ccccc2)C(/N=N/c2ccc(Cl)cc2)C1=O` (stereo unspecified), the GI50 was inactive: 53.1 µM.

Regarding `NC(=O)c1cc2cc(Cl)cc(Cl)c2o/c1=N\c1ccc(F)cc1`, the GI50 was inactive: 13.6 µM.

As for `[N-]=[N+]=CC(=O)OC1CCOCC1`, the GI50 was inactive: > 100 µM.

Regarding `COc1cc(C(=O)Oc2c(C#N)sc3c2c(=O)n(-c2ccccc2)c(=S)n3-c2ccccc2)cc(OC)c1OC`, the GI50 is inactive: 20.8 µM.

As for `COC(=O)OCC1OC(N2C(=O)NC(=O)C(Br)C2N=[N+]=[N-])CC1OC(=O)OC` (stereo unspecified), the GI50 is inactive: > 100 µM.

Take `C#CCNC(=O)NCCCCC(NC(=O)OCc1ccccc1)C(=O)OCc1ccccc1` (stereo unspecified): the GI50 is inactive: > 100 µM.

As to `COc1ccc2[nH]c3c(c2c1)CC(=O)N1CCCC(CC3O)C1` (stereo unspecified), the GI50 was inactive: > 100 µM.

As for `CSc1cc(Cl)c(C)cc1S(=O)(=O)NC(=O)Nc1ccc(Cl)cc1`, the GI50 is inactive: 31 µM.

Turning to `COc1cc2c(/C=C3/C(=O)Nc4cc(C)c(O)cc43)c(Cl)[nH]c2cc1C`, the GI50 was inactive: 1.14 µM.

Regarding `COc1ccc2nc3c(c(N)c2c1)C1CCC3C1(C)C` (stereo unspecified), the GI50 was inactive: 46.8 µM.

`CCOC(=O)CCC(NC(=O)c1ccc(Nc2nc3ccccc3nc2C(=O)OCC)s1)C(=O)OCC` (stereo unspecified): the GI50 was inactive: > 100 µM.

For `CC1(c2nc3cc(Cl)c(Cl)cc3[nH]2)CCC(C(=O)O)C(C)(C)O1` (stereo unspecified), the GI50 is inactive: > 100 µM.

For `CC(=O)ONC(C(=O)C(C)(C)C)C(=O)C(C)(C)C`, the GI50 is inactive: > 100 µM.

With `C=C1C(OC)=C(OC)C(=O)c2[nH]c3c(OC)cc([N+](=O)[O-])cc3c21`, the GI50 was inactive: > 100 µM.

`COc1ccc(C(CCC(C)=O)C(=O)O)cc1OC` (stereo unspecified): the GI50 is inactive: > 100 µM.

On to `CC1=CC(=O)C(=O)C2=C1OC1(C2)C(C)CCC2C3(C)CCC(O)C(C)(C)C3CCC21C` (stereo unspecified), for which the GI50 is inactive: 24.5 µM.

With `COc1cc(NC=C2C(=O)OC(C)(C)OC2=O)c(OC)c(C)c1OC`, the GI50 was inactive: > 100 µM.

As to `COC(=O)CC(C(C(=O)OC)C(=O)OC)N1C(=O)OCC1c1ccccc1` (stereo unspecified), the GI50 is inactive: > 100 µM.

Consider `COc1ccc(C2[C@@H](Cl)C(=O)N2c2ccc(OC)cc2)cc1` (stereo partly specified), for which the GI50 was inactive: 83.2 µM.

Turning to `COc1cc(/C=C2/C(=O)N(C(=O)c3ccccc3O)N=C2C)cc(OC)c1OC`, the GI50 is inactive: 5.3 µM.

As to `Clc1ccc(OCc2nnc(CCCCCCCCc3nnc(COc4ccc(Cl)cc4Cl)n3Nc3ccccc3)n2Nc2ccccc2)c(Cl)c1`, the GI50 is inactive: 25.5 µM.

Turning to `Oc1cc(-c2cccc(Cl)c2)nc2cc3c(cc12)OCO3`, the GI50 is inactive: 1.16 µM.

On to `COc1cc(CNc2ccc(C)cc2)cc(OC)c1OC`, for which the GI50 is active: 0.984 µM.
